Test results taken from patent publication US10172829B2 (priority 2014, dated 2019).

System: C. difficile strain 630

O=c1c2ccccc2[se]n1-c1ccccc1 [Ebselen, 2-phenyl-1,2-benzoselenazol-3-one]
overall pathology, histology analysis of the colon (ebselen vs vehicle treated infected mice): significant improvement in overall pathology
growth inhibitory or killing effect on C. difficile (CFUs per ml of feces) (mouse, in vivo): No growth inhibitory or killing effect
mean of differences of overall histopathological scores, ebselen vs vehicle (mouse, in vivo): 2.3
overall histopathological score (cell infiltration, submucosal edema, mucosal hypertrophy) (mouse, in vivo, po, 100 mg/kg): 1.43±0.2
